Experimental findings from paper PMC9911399, “Two distinct binding modes provide the RNA-binding protein RbFox with extraordinary sequence specificity” are described below.

Residue numbers refer to the chain shown, from its start. Some of the results follow.

The chains are these.
T1: RBFOX1 RRM (Homo sapiens, UniProt Q9NWB1 109-208)
T1 sequence: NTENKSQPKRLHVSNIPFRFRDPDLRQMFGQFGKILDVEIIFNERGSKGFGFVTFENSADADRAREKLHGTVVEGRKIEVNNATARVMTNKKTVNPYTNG

B1: UCUAGGC (DNA:RNA)
RNA: GGGAGACCGGAAUUCAGAUUGUCCUCUAGGCUUAAAUCCCGUCGUAGCCACCA
DNA 1: CAATCTGAATTCCGGTCTCCC
DNA 2: TGGTGGCTACGACGGGATT
B2: CCGUAAC (DNA:RNA)
RNA: B1 RNA with U25C, U27G, A28U, G29A, G30A
DNA 1: CAATCTGAATTCCGGTCTCCC
DNA 2: TGGTGGCTACGACGGGATT
B3: AUGAAUU (DNA:RNA)
RNA: B1 RNA with U25A, C26U, U27G, G29A, G30U, C31U
DNA 1: CAATCTGAATTCCGGTCTCCC
DNA 2: TGGTGGCTACGACGGGATT
B4: GCGAUAU (DNA:RNA)
RNA: B1 RNA with U25G, U27G, G29U, G30A, C31U
DNA 1: CAATCTGAATTCCGGTCTCCC
DNA 2: TGGTGGCTACGACGGGATT
B5: UAGUCCG (DNA:RNA)
RNA: B1 RNA with C26A, U27G, A28U, G29C, G30C, C31G
DNA 1: CAATCTGAATTCCGGTCTCCC
DNA 2: TGGTGGCTACGACGGGATT
B6: UAACGAG (DNA:RNA)
RNA: B1 RNA with C26A, U27A, A28C, G30A, C31G
DNA 1: CAATCTGAATTCCGGTCTCCC
DNA 2: TGGTGGCTACGACGGGATT
B7: UCUCCAU (DNA:RNA)
RNA: B1 RNA with A28C, G29C, G30A, C31U
DNA 1: CAATCTGAATTCCGGTCTCCC
DNA 2: TGGTGGCTACGACGGGATT
B8: AACUCAU (DNA:RNA)
RNA: GGGAGACCGGAAUUCAGAUUGUCCAACUCAUUUAAAUCCCGUCGUAGCCACCA
DNA 1: CAATCTGAATTCCGGTCTCCC
DNA 2: TGGTGGCTACGACGGGATT
B9: CCGAAUA (DNA:RNA)
RNA: B1 RNA with U25C, U27G, G29A, G30U, C31A
DNA 1: CAATCTGAATTCCGGTCTCCC
DNA 2: TGGTGGCTACGACGGGATT

For this test, the target named is T1, RBFOX1 RRM. As to the kind of experiment: EMSA; HiTS-Eq, 1 nM pool, 10 min; buffer printed only for the single-RNA assays: 10 mM Tris pH 7.5, 150 mM NaCl, 3.4 mM EDTA, 0.001% NP-40, 30 C. The note with it: tags: His6 N-terminal (pET28a); label: 5' 32P. Summed up: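 These values rest on relative association constants, computed from read-count changes of each RNA species versus the control reaction and normalised to the cognate motif. Reads came from free RNA recovered by 8% native PAGE after purified RbFox RRM (wild type or mutant) at increasing concentrations was equilibrated for 10 min in 50 µL with 1 nM of a 5′-radiolabelled pool with 7 randomized nucleotides and DNA-annealed flanks.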
Take B1: the binding signal is 0.00923 KA relative to UGCAUGU. In the case of B2, the binding signal is 0.00745 KA relative to UGCAUGU. Take B3: the binding signal is 0.0047 KA relative to UGCAUGU. In the case of B4, the binding signal is 0.00908 KA relative to UGCAUGU. For B5 the value was 0.00983 KA relative to UGCAUGU; for B6, 0.00761 KA relative to UGCAUGU; for B7, 0.00523 KA relative to UGCAUGU. For B8, the binding signal is 0.000205 KA relative to UGCAUGU. For B9 the value was 0.00221 KA relative to UGCAUGU.
